Data taken from PubChem BioAssay AID1963576 (National Center for Advancing Translational Sciences (NCATS), 2024).
The campaign covered roughly 46,000 compounds. About 60 (0.1%) were called active. Not shown: some 3% with an inconclusive outcome. Calls follow the shape of the dose curve; as a rule, active = well fitted inhibition curve with a large enough effect; inconclusive = small, poorly fitted or top-dose-only effect; inactive = no such curve, though single readings can be large or run the other way. The list shows a part of the results.

Test: Primary qHTS assay for Inhibitors of ovarian cancer metastasis using an organotypic tumor microenvironment (TME) model. Also: nearly all actives have a fitted effect of over 65% in size.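 As to activity change, negative = inhibition: plate controls were DMSO wells for no effect and tomatine positive control wells for full effect.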
Conditions: SKOV3ip1-GFP adhesion/invasion on 3D omental model, fluorescence; series mostly up to 45.8 µM; activity change, negative = inhibition: at the top concentration
Procedure, shortened: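 Adhesion/invasion was scored as fixed GFP-labeled SKOV3ip1 cell counts (488/509 nm), normalized to DMSO and tomatine controls. Cancer cells in serum-free medium, with four compound doses (0.36-46 umol/L), sat 2 hr at RT then 16 hr at 37 C on a 48 hr fibroblast/mesothelial/ECM culture.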

Activity change, negative = inhibition, inactive:
CC(=O)Nc1c(C)nn(-c2ccccc2)c1N1CCC(C(=O)Nc2ccccc2C(F)(F)F)CC1 -4.79%
O=C(CN1c2ccc(Br)cc2-c2ccccc2S1(=O)=O)N1CCCCC1 -4.26%
COc1cccc(Nc2nc3c(S(=O)(=O)c4cc(C)ccc4C)nnn3c3ccsc23)c1 17.5%
CCOc1ccc(Nc2oc(/C=C/c3ccc(OC)c(OC)c3)nc2C#N)cc1 -25.8%
Cc1cccn2c(=O)c(C(=O)NC(C)c3ccccc3)c(O)nc12 (stereo unspecified) -1.43%
COc1ccc2c(C)c(CCC(=O)NCc3ccccc3OC)c(=O)oc2c1 -6.33%
COc1ccc(C)cc1-n1nnc(S(=O)(=O)c2ccc(C)cc2)c1C 4.89%
O=C(Cn1c(-c2cccs2)cc2cc(F)ccc21)N1CCN(c2ccccc2)CC1 -11.3%
CCOCCCNC(=O)C(=O)Nc1c2c(nn1-c1ccccc1)CSC2 7.96%
O=C(COc1ccc(Cl)cc1)NCC(c1ccco1)S(=O)(=O)c1ccc(F)cc1 (stereo unspecified) 6.25%
CC(=O)c1ccc(NC(=O)c2cc3sccc3n2Cc2ccc(Cl)cc2)cc1 6.15%
O=C(c1ccccc1Cl)N1CCC(c2nc3ccccc3s2)CC1 0.687%
COCCCn1c(SCC(=O)Nc2ccc(F)cc2)nc2c(sc3ccccc32)c1=O -3.53%
COc1ccc(CNC(=O)c2cc3cccc4c3n2CC(C)S4)cc1OC (stereo unspecified) -7.35%
COCCCn1c(=O)c2sccc2n2c(CCCC(=O)Nc3cccc(OC)c3)nnc12 -16.9%
Cc1ccc(CNS(=O)(=O)c2ccc3[nH]c4c(c3c2)CCCCC4)cc1 3.29%
CC(=O)N1CCCC1c1nc2ccccc2n1Cc1ccc(F)cc1 (stereo unspecified) -9.37%
O=C(CO)N1CCC(c2[nH]nc(-c3ccc(Cl)cc3)c2-c2ccncn2)CC1 -14.7%
COc1cc(NC(=O)CN2C(=O)COc3ccc(S(=O)(=O)NC4CCCC4)cc32)cc(OC)c1 7.43%
CCc1ccc(NC(=O)c2ccc(Cn3nc(N4CCN(c5ccccc5)CC4)ccc3=O)o2)cc1 0.576%
Cc1ccc(Cl)cc1-n1ncc2c(Nc3ccc4c(c3)OCCO4)ncnc21 -4.92%
CCCn1c2ccccc2c2cnn(CC(=O)NCCCN(CC)c3ccccc3)c(=O)c21 -4.28%
COc1cc(NS(=O)(=O)c2c(C(=O)N3CCCCC3)c(C)n(C)c2C)cc(OC)c1OC 4.44%
CCC(C)c1ccccc1OCC(=O)Nc1ccc(S(=O)(=O)Nc2cc(C)on2)cc1 (stereo unspecified) -5.05%
CC1CCc2c(sc3nnn(CC(=O)Nc4c(C(C)C)cccc4C(C)C)c(=O)c23)C1 (stereo unspecified) -3.95%
CCOC(=O)c1cc(-c2ccccc2)n(CC(=O)Nc2ccccc2OCC)c1C -0.229%
Cn1nnnc1SCCCNCc1cc(Br)ccc1OCc1ccccc1F -16.4%
Cc1ccc(CCNC(=O)c2ccc3c(c2)N(Cc2ccccc2F)C(=O)c2ccccc2S3=O)cc1 (stereo unspecified) 37.8%
O=C(Nc1sc2c(c1C(=O)NCC1CCCO1)CCC2)c1cc(=O)c2cc(Cl)ccc2o1 (stereo unspecified) -4.35%
CCOC(=O)c1c(S(=O)(=O)NCC(=O)Nc2ccc(C(C)=O)cc2)c(C)n(C)c1C 3.03%
O=C1C(=O)N(C2CCNCC2)CCN1Cc1ccccc1 -0.819%
Cc1cc(Nc2nc(N[C@@H](C)c3ccc(F)cc3)c(C#N)cc2F)n[nH]1 5.8%
Cc1cccc(C)c1NC(=O)CCCn1c(=O)c2cccn2c2ccccc21 -12.6%
COc1ccc(-c2nc(CCNC(=O)c3ccccc3)cs2)cc1OC -26.2%
Fc1ccc(-c2cc(-c3ccccc3)c3c(n2)-c2ccccc2OC3)cc1 3.06%
Fc1ccc(-c2csc(=Nc3cccc(C(F)(F)F)c3)n2Cc2ccc3c(c2)OCO3)cc1 0.418%
COc1ccc(-c2cn3c(n2)sc2cc(C(=O)NCCCN4CCCCC4)ccc23)cc1 -23.8%
CCCS(=O)c1ccc2nc(NC(=O)OC)[nH]c2c1 (stereo unspecified) 24%
Cc1nn(CCCC(=O)Nc2cc(C(F)(F)F)ccc2Cl)c(=O)c2c1sc1ccccc12 4.91%
CCNC(=O)c1c(C)oc2ncn(C)c(=O)c12 3.5%
CCc1ccc(CNC(=O)CSc2cc(=O)n(CC)c3ccccc23)cc1 -1.9%
COc1ccc(N2CCN(C(=O)c3ccc4c(=O)n(CCc5ccc(OC)c(OC)c5)c(=O)[nH]c4c3)CC2)cc1 -11.3%
CCc1ccc(NCc2cc3cc4c(cc3n(CC(=O)Nc3ccccc3Cl)c2=O)OCO4)cc1 3.93%
CCOCCCNC(=O)C1CCN(c2cc(C)nc3c(-c4ccc(Cl)cc4)c(C)nn23)CC1 15.4%
Cc1ccc(-c2cn3c(n2)sc2cc(C(=O)NC4CCCc5ccccc54)ccc23)cc1 (stereo unspecified) 15.9%
Clc1ccc2nc(Nc3ccccc3Cl)nc(-c3ccccc3)c2c1 -4.97%
CCc1ccc(NS(=O)(=O)c2ccc3[nH]cc(C(=O)NCc4ccc(C)cc4)c(=O)c3c2)cc1 -3.56%

outcome, inactive:
COc1ccc(CNc2oc(/C=C/c3cc(OC)c(OC)c(OC)c3)nc2C#N)cc1
CCN(CC)S(=O)(=O)c1ccc(C(=O)NC2CC(=O)N(c3ccc(OC)c(OC)c3)C2)cc1 (stereo unspecified)
COc1ccc(Cl)cc1NC(=O)Cn1nc(C(F)(F)F)c2c1CCCC2
Cc1cccc(NC(=O)C2CCCN(S(=O)(=O)c3ccc4c(c3)CCCC(=O)N4)C2)c1 (stereo unspecified)
O=C(c1ccc2c(c1)N(Cc1c(F)cccc1Cl)C(=O)c1ccccc1S2)N1CCCC1
O=C(Nc1cccc2cccnc12)c1ccc(-c2cccc(Cl)c2)o1
COc1ccc(-c2cc3ncc(C(=O)c4cc([N+](=O)[O-])ccc4O)cn3n2)cc1
COc1cccc(NC(=O)CCCn2c(=O)c3cccn3c3cccnc32)c1
CCN(C(=O)CSc1nnc(-c2cc3occc3n2C)n1-c1ccccc1C)c1cccc(C)c1
COc1ccc(NC(=O)CN2C(=O)CCc3cc(S(=O)(=O)N4CCOCC4)ccc32)c(OC)c1
CCOc1ccccc1NC(=O)Cn1c(=O)n(-c2ccccc2)c(=O)c2c1c1cc(C)ccc1n2C
CCc1nn(CC(=O)N(CC)Cc2ccccc2)c(=O)c2cc3occc3n12
CCN(CC)C(=O)c1cnn(-c2ccc(F)cc2)c1-n1cccc1
CCOc1ccc(-n2c(=O)c3c4c(sc3n(Cc3cccc(C)c3)c2=O)CCCC4)cc1
